Data from publication PMC12136788.
This is one part of the list.

T1: UNK ZnF1-3 (human, UniProt Q9C0B0 31-174)
T1 sequence: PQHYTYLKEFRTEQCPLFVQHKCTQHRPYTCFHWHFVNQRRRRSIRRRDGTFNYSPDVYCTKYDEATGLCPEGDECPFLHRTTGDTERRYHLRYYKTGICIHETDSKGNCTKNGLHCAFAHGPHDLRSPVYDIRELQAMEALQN

B1: 41688753_41688873_826_CDS_ENSG00000137806_ENST00000260361|human|control|control (ssRNA)
RNA: GGGAGUUCUACAGUCCGACGAUCGCUCAGAGUUCCAUAUAGCAGUGCACUUUGGUUAUUCUUGCCCAUUUUCAAAAACACUUCACUUCUGCCUCCAAUCGUCUUAUCAGAAGUCACUGUCCACUUAUCCAAAUCUUCUUUCCCCAACAGAGGAUUGAGCAUCA
B2: chr5:44151052:44151053:-_ENSMUSG00000039753_ENSMUST00000047857|mus_mus|motif|central (ssRNA)
RNA: GGGAGUUCUACAGUCCGACGAUCGUCGGUCUGGGUAAGAUCCAGAUGUUCCAGGUUAGGACAAAGCUCUAAAAUCUGCCGGACCAUUUUGCUGGAGACUGCAGAGCUGUACGCUAACACUAAAGUUUUUACAGAGGUACCAACCAACAGAGGAUUGAGCAUCA
B3: chr3:10015032:10015033:+_ENSMUSG00000027533_ENSMUST00000029046|mus_mus|mus_mus_mus_hu_True|18_98 (ssRNA)
RNA: GGGAGUUCUACAGUCCGACGAUCGUUUUUACCAUCACACGUAAUGAUACAAUCUGGCUUGGCCAUUGCGCCCAUUUUUCGCAAAGCUAUUCCCACUCCUAGCUCCUUCAUGUAUUCCUCAAAGCCGUUGCUGUCCACCAGGCGCAACAGAGGAUUGAGCAUCA
B4: chr13:42895476:42895477:+_ENSG00000023516_ENST00000025301|hu_mus|FALSE|FALSE (ssRNA)
RNA: GGGAGUUCUACAGUCCGACGAUCGUUGCACUGAAUGAAGAACACUGAGUGAGCGCUGCUUGGCUUCACCAGAAUGCAAAGGAACCAGGAGCAGAGUUAAAGCUCGCCUCAAAUAACUACACCAGCAGCUGAAACACGCCUGGGCAACAGAGGAUUGAGCAUCA
B5: chr5:128448638:128448639:+_ENSG00000066583_ENST00000173527|hu_mus|hu_hu_hu_mus_False|28_98 (ssRNA)
RNA: GGGAGUUCUACAGUCCGACGAUCGGCACUCGCCUUAAUUAGAUUCUGAAUUUCCUUGAACUUCGGGUGGUCUUUGUCAGCCACCAGCUGUAGGAGGACAGCCUCACUCGUGGUCACGAUGAUCCCAGUGCGGGCAAGACGCUCCAACAGAGGAUUGAGCAUCA
B6: chr5:145888941:145888942:+_ENSMUSG00000029622_ENSMUST00000085679|mus_mus|FALSE|FALSE (ssRNA)
RNA: GGGAGUUCUACAGUCCGACGAUCCUUUGGGUUUUUGUUUCUUGUAUUUUUUGGGUUUUGGGUUGUUUGUUUUUUUUUUUUUUUUUUUUUUUUUUGGCCUUGUUUUUGGUUUGCAAUAAAGAGUAUUUCUUUAAAAGGCACAUUCAACAGAGGAUUGAGCAUCA
B7: 183498046_183498166_730_3pUTR_ENSG00000116698_ENST00000515829|human|control|control (ssRNA)
RNA: GGGAGUUCUACAGUCCGACGAUCUUUAGAAAGUGCUUUUUGCAGAUUAGUGGAGGCAGCUGGGAAAGGGAACUUCACAGCAAUGCUUCUGCAGUAGUAGAAAAUUGUGGUCAGAUGGUCUCCUUUGGAAGAAGCUAAGAUAGCCAACAGAGGAUUGAGCAUCA
B8: 77267893_77268013_3409_CDS_ENSMUSG00000037926_ENSMUST00000037912|mouse|control|control (ssRNA)
RNA: GGGAGUUCUACAGUCCGACGAUCGUCUUGCGGGCUACUUAACAUAGGGUUUGGGUCAGCGGGCCUGUCACACUCUGAGGAAGAAUGAGGCAGAGGUAGCACUUGGGGAUGCAGAGAAACUUGACUGGGCUCCAGAGUCCUGUUCAACAGAGGAUUGAGCAUCA
B9: chr2:26332712:26332713:+_ENSG00000084733_ENST00000264710|hu_mus|FALSE|FALSE (ssRNA)
RNA: GGGAGUUCUACAGUCCGACGAUCGUUUCUAAGCCACUUGCUGAUGUUCUCAAAGCUUUUACCGUUGGUGAUGUCAUACACUAGCAUGAUGCCCAUUGCUCCUCUGUAGUAGGAGGUUGUGAUGGUGUGAAAUCGCUCCUGGCCCAACAGAGGAUUGAGCAUCA
B10: chr9:95013113:95013114:-_ENSG00000196305_ENST00000443024|hu_hu|hu_hu_hu_mus_False|8_48 (ssRNA)
RNA: GGGAGUUCUACAGUCCGACGAUCCUCAGUCAGAAAGGGCGUGUAAGGGGCCAUCAGUCUGCACAGAGAAAGCAGGACACUGAACAGGGUUUCUAGGGCCAUGACACAGUCUUCCACCCCACUCUCACCCUUUAAUCUCCUCCUCAACAGAGGAUUGAGCAUCA
B11: chrX:71549762:71549763:+_ENSMUSG00000019087_ENSMUST00000019231|mus_mus|mus_mus_mus_hu_False|58_58 (ssRNA)
RNA: GGGAGUUCUACAGUCCGACGAUCAAACCCGUGUACUUCUUAUUGUUAGCACAACAUCACCAGAAAACGAUAACGACAGCUAAGCUGGACAGACAGUUAAGUAGUACUUCCACACUCCCAAACUCAGGGAGCCCUAUAACCUUACAACAGAGGAUUGAGCAUCA
B12: chr4:148554205:148554206:-_ENSMUSG00000063077_ENSMUST00000060537|mus_mus|FALSE|FALSE (ssRNA)
RNA: GGGAGUUCUACAGUCCGACGAUCUAGCCACCAAAGAGAAAGAGAAAGAGAGACAGAGACAGACAGACACACACACACACACAUACAGAGAAAGAGAGAGAGUCAGAGACAGACACAGAGAGAGACAGACAGACACCAGACACACAACAGAGGAUUGAGCAUCA
B13: chr6:89808334:89808335:-_ENSG00000154548_ENST00000452027|hu_mus|FALSE|FALSE (ssRNA)
RNA: GGGAGUUCUACAGUCCGACGAUCUCUGCUGGGAGGAGCUCCUCACCAACUGUUUUUAUGGUGGUAACUCCGAGAUCUGGAGUGGGACCGGAGAUGGGAGUGUUUUGUUGUCUGUGUCUUCGAUCCAGAACUGGUGUACGCUCUCAACAGAGGAUUGAGCAUCA
B14: chr7:54825262:54825263:-_ENSG00000132432_ENST00000352861|hu_hu|hu_hu_hu_mus_False|8_38 (ssRNA)
RNA: GGGAGUUCUACAGUCCGACGAUCCUGCCGGCUGGGCUCCACAAACUGCAUUACCUGAUCCAUGUUUGUUGGAUGGCGGAUUGAGAGCGUAGAGACAACGUAGCACUGAGAGAACCGAGCCCAACGGCACCGGAACCUGGCAACCAACAGAGGAUUGAGCAUCA

The binders below were run against T1, UNK ZnF1-3 (assay: nsRBNS (natural sequence RNA bind-n-seq); RBNS binding buffer (assumed for nsRBNS): 25 mM Tris pH 7.5, 150 mM KCl, 3 mM MgCl2, 0.01% Triton X-100, 500 ug/ml BSA, 20 U/ml SUPERase-In, 4 C; UNK is unkempt and MSI1 is Musashi-1; names of the RNAs are library labels; protein concentration not given here; high values mean tight binding).

Binder	binding signal [enrichment R]
B1	0.856
B2	1.06
B3	0.697
B4	1.65
B5	0.717
B6	0.0872
B7	1.36
B8	1.67
B9	0.653
B10	0.934
B11	1.08
B12	2.83
B13	0.536
B14	1.65
